From the supplement of paper PMC3334620
Whole data set: some 33,000 sequences, median “E-score (-0.5 to 0.5)” near -0.041, cut for the highest 2% near 0.37. The list shows a part of the results.

Molecular target: T1, Ecm22 (UniProt Q05958)
T1 sequence: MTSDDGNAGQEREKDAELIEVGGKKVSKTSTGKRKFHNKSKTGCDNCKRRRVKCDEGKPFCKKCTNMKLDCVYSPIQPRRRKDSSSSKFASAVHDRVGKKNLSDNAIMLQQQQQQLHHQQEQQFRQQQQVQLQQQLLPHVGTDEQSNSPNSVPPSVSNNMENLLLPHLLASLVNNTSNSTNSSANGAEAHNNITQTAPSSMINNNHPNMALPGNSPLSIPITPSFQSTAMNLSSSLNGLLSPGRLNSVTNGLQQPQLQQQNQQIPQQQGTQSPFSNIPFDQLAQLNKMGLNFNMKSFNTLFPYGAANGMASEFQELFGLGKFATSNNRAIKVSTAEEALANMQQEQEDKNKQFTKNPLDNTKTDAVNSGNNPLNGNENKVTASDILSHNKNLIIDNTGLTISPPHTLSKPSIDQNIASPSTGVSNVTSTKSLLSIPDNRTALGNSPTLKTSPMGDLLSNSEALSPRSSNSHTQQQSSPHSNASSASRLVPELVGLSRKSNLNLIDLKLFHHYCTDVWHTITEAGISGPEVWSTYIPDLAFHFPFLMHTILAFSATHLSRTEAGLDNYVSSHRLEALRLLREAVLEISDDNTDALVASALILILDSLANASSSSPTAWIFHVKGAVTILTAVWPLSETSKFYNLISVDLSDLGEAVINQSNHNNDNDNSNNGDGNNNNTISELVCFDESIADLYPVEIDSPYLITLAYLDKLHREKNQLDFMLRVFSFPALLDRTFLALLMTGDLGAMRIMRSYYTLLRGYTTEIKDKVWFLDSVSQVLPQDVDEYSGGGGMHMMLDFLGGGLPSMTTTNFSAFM
Test: PBM E-score (8-mer binding enrichment) (E-score (-0.5 to 0.5)); higher = stronger / more preferred TF binding; most listed sequences are background and not binding sites
Conditions: protein concentration: 200 nM; construct: GST-full length
Outline: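 Yeast transcription factors, full-length or as DNA-binding domains, were expressed with a GST tag using PURExpress in vitro transcription/translation. At about 100-200 nM they were applied to universal all-10-mer Agilent arrays, double-stranded by primer extension on fresh or once-stripped slides. Fluorescent anti-GST detected bound protein, and masliner normalised the scans. E-scores for ungapped eight-base words, pooled with reverse complements, came from the Universal PBM Analysis Suite.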

| Sequence | PBM E-score |
| --- | --- |
| GCGCCGGA | 0.105 |
| GACCAGGC | -0.228 |
| ACGCTTAT | 0.0104 |
| GTGCAGAA | 0.104 |
| AGATTAGC | -0.0627 |
| AGAGACAG | -0.144 |
| CTTGCGAC | 0.0241 |
| AAGGTCAA | -0.218 |
| AACTCCAC | -0.128 |
| GCAGAGCA | -0.0364 |
| ATAGGGTA | 0.034 |
| GAGTCCTA | -0.216 |
| CTAGGATC | -0.0532 |
| ATTTGGAA | -0.148 |
| TAATTCCA | -0.0387 |
| AGAATGAT | -0.0132 |
| CAATAGTA | -0.11 |
| AAGTACTC | 0.152 |
| AAATCCAG | 0.0493 |
| GTTGTCCA | -0.0855 |
| GTTCGTAA | 0.427 |
| AGCTGTGA | -0.0321 |

| Sequence | PBM E-score |
| --- | --- |
| CTTTAGTA | 0.0175 |
| CTATACGC | 0.403 |
| CTGCTTCC | -0.214 |
| AGAAGTTC | -0.106 |
| GTCGAAAA | 0.0767 |
| ATAATGGC | -0.0692 |
| CAGTCCCA | -0.312 |
| CAACCTAG | -0.22 |
| AGCCTGGG | -0.174 |
| AATGCTCC | -0.233 |
| ATCCGGGG | -0.0181 |
| TAAAACTA | 0.0191 |
| AATTAACA | -0.0123 |
| TGGCGACA | 0.11 |
| CACTGCCA | -0.00316 |
| AAGGTGTA | -0.0872 |
| CCATGCAA | -0.145 |
| AAAGCATT | -0.0847 |
| ACTGGCTG | -0.127 |
| ACAACTCC | -0.151 |
| GCGACTAC | 0.0827 |
| AACCCAGT | -0.0243 |

| Sequence | PBM E-score |
| --- | --- |
| CGATCTAA | 0.0461 |
| GGGGGACC | -0.272 |
| CAAATCCG | -0.0204 |
| CAATGGTC | -0.129 |
| TCAGTGCA | -0.0784 |
| AAAGGTTC | -0.00446 |
| AAGGGAAG | -0.131 |
| AGAATACG | 0.293 |
| CACAACAG | -0.256 |
| CTTGGTCC | -0.103 |
| GAACACAC | -0.123 |
| AACCGGGA | 0.043 |
| CAGCAGGA | -0.248 |
| ATACGCTG | 0.205 |
| TCCTATCA | -0.0891 |
| ATTCTATA | -0.00057 |
| CATGGGCG | -0.184 |
| GGACGAGA | 0.0358 |
| CTAAGGTC | -0.196 |
| CTACAAGC | -0.0162 |
| GGTAGCGA | 0.157 |
| ACAAAATG | -0.0181 |

| Sequence | PBM E-score |
| --- | --- |
| CGAGACCA | 0.21 |
| CGTCACAA | 0.0778 |
| ATCATGTA | 0.0364 |
| GATACCGC | 0.031 |
| ATTCGTAA | 0.405 |
| CAGTTAGA | -0.187 |
| GCCTGAGA | -0.0939 |
| AAGAACTC | -0.0316 |
| GCAAGCAC | -0.248 |
| TATACACA | 0.198 |
| ATGTCATG | -0.0467 |
| ATGACACA | -0.0421 |
| AATTGATA | 0.0989 |
| CTTCCTCA | -0.132 |
| ATGATCGC | 0.0439 |
| CCCCTCTC | -0.188 |
| AGCGGGAA | 0.182 |
| CCTTAACC | -0.173 |
| AATTGACG | 0.0203 |
| CGGATACA | 0.162 |
| CATGGCCA | -0.311 |
| ACGATTAC | 0.277 |

| Sequence | PBM E-score |
| --- | --- |
| GATTAGGC | -0.0365 |
| CCAGAGCA | -0.105 |
| AGATCCTG | -0.103 |
| CAGTACCA | -0.017 |
| CAGTGGAA | -0.284 |
| GTTACGCA | 0.0933 |
| CCGCATCA | -0.195 |
| AAAAGTCG | 0.0905 |
| ACGGAATC | -0.0009 |
| GATTCTAC | 0.0474 |
| GTGATTAA | -0.0515 |
| TCGAGAGA | 0.0743 |
| GCACGACA | 0.114 |
| GCAGCCAC | -0.0453 |
| CCCGGTTA | 0.00957 |
| ACCCTGTG | -0.08 |
| ATACTCCA | -0.0114 |
| CGAACTCA | 0.0727 |
| AAACCAGT | -0.00755 |
| CGGCCGCA | -0.0854 |
| CAATCTCA | -0.0458 |
| AACTCCAT | -0.298 |
